According to article PMC2692298 (Science signaling, 2008):

Target: the molecule itself
Assay: nonreducing SDS-PAGE

B1: SDF1(L36C/A65C), covalently-locked symmetric dimer (ligand)
chain: not shown
modifications: intermolecular […] disulfide bonds between the two subunits
stoichiometry N: 2
